Test results published in paper PMC4336329 (PLoS ONE, 2015).
About 2,200 (0.71%) of roughly 310,000 compounds showed an effect of 50% or more. Effects have a minus sign here. This is one part of the list.

Molecular target: human ether-à-go-go-related gene (hERG) potassium channel (human, UniProt Q12809)
Experiment: primary screen, population patch clamp on CHO cells stably expressing hERG

human ether-à-go-go-related gene (hERG) potassium channel, sequence (Q12809 whole entry, looked up): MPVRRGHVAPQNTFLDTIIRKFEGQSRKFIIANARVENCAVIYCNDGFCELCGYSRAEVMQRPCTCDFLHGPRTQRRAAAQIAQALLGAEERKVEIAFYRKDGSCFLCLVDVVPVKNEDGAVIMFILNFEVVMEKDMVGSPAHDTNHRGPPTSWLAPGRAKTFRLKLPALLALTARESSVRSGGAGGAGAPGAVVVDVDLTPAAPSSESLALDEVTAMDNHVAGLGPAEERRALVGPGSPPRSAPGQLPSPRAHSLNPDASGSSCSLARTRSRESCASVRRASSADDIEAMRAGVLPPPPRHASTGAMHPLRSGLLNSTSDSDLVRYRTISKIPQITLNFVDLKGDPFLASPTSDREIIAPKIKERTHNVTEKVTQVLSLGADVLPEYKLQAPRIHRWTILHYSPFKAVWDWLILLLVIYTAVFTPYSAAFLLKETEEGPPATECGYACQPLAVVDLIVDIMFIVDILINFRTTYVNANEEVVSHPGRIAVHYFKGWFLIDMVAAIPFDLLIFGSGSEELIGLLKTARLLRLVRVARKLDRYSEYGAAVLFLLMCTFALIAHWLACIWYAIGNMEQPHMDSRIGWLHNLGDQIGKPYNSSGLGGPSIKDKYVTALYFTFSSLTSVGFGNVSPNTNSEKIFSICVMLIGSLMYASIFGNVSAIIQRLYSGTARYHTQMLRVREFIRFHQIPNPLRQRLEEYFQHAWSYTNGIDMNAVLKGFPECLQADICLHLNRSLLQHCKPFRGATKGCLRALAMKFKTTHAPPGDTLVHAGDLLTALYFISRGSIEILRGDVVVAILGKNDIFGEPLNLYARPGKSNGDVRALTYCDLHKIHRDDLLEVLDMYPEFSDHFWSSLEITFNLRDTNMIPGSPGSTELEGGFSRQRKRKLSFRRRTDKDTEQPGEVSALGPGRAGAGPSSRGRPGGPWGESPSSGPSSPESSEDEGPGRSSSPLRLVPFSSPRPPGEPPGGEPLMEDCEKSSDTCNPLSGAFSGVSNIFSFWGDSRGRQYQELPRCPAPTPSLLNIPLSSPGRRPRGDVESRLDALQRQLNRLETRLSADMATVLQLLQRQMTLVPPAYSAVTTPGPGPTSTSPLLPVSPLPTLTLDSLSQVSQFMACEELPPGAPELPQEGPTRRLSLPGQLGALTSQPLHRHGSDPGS

SMILES | hERG current change (%, negative = inhibition) at 1uM [%]
Fc1ccc(C2NC(=S)NC3=C2N2CCC3CC2)cc1 (stereo not shown) | 8
COc1ccc(Nc2ccnc(Nc3ccc(OC)cc3)n2)cc1 | 3.34
C/C(=N\OCC(=O)Nc1cc(C)cc(C)c1)c1ccc2c(c1)OCCO2 | 2.87
COc1ccc(-c2nc(N)c(C#N)c(-c3cccnc3)c2C)cc1 | 7.35
COc1ccc(C(CNC(=O)c2ccc(S(=O)(=O)Nc3ccc(F)cc3)cc2)N(C)C)cc1 (stereo not shown) | 7.45
Cc1c(C)n(C)c2ccc([N+](=O)[O-])cc12 | 6.94
CC1CN(Cc2c(O)ccc3c2oc(=O)c2ccccc23)CC(C)O1 (stereo not shown) | 10.4
CCOC(=O)c1ccc(Oc2nc(NC)nc(SC)n2)cc1 | 8.43
COCCn1c(COc2ccc(C)cc2)nc2ccccc21 | 11.1
NC(=O)CCn1c(C(=O)c2cc(Cl)c(N)c(Cl)c2)c2ccccc2[n+]1[O-] | 14.9
CCOC(=O)c1cc(NC(=O)N2CCCCC2)c(C)nc1C | 19.2
Cc1cc(N2CCCC2)nc(N2C3CCC2CC(O)(c2ccc(F)cc2)C3)n1 (stereo not shown) | -2.31
COc1cccc(NC(=O)N2CCN(S(C)(=O)=O)CC2)c1 | 10.4
CC(=O)c1ccc(NC(=O)CCc2nnc3ccc(NCc4ccco4)nn23)cc1 | 6.27
CCOC(=O)c1csc(NC(=O)CN2CCN(C)CC2)n1 | 13.4
N#Cc1c(-c2ccccc2)nc(-c2ccccc2)[nH]c1=O | 10.2
CCc1cccc(C)c1NC(=O)c1cccnc1 | 15.7
CCOC(=O)Cn1c(-c2ccccn2)nc2ccccc21 | 10.8
Cc1ccnc(SCC(=O)c2ccc(Br)cc2)c1C#N | 7.03
S=C(NCCc1ccccc1)Nc1ccc(Nc2ccccc2)cc1 | 14.5
CCOC(=O)COc1ccc(N)cc1CC(NC(C)=O)(C(=O)OCC)C(=O)OCC | -69.6
Fc1cc(F)cc(NC(=S)NN2CCOCC2)c1 | 8.64
CCN(CC)CCCN(Cc1cc2cc3c(cc2[nH]c1=O)OCO3)C(=S)NCCCN(C)C | 8.05

SMILES | hERG current change (%, negative = inhibition) at 1uM [%]
CCCn1c(N)c(N(CCOC)C(=O)c2cc(Cl)nc3ccccc23)c(=O)[nH]c1=O | 22.2
O=c1[nH]c(COc2ccccc2)nc2ccccc12 | 13.4
CCC(CC)C(=O)c1c[nH]c(C(=O)O)c1 | 20.4
CC(C)=CCOc1ccc2ccc(=O)oc2c1 | -6.5
COc1ccc(C(CNC(=O)c2oc3cc(C)c(Cl)cc3c2C)N2CCCCC2)cc1 (stereo not shown) | 18.4
COc1ccccc1/C=C/C(=O)OCCCN(C)C.Cl | 18.6
CC(NS(=O)(=O)c1ccc(Cl)cc1)C(=O)Nc1ccc2c(c1)OCCO2 (stereo not shown) | -5.22
CN(C)S(=O)(=O)c1cc(NC(=O)C[N+]23CCN(CC2)CC3)ccc1Cl.[Cl-] | 9.91
CSCCC(NS(=O)(=O)c1ccccc1F)C(=O)NCc1cccnc1 (stereo not shown) | 11.3
CCOc1ccc(Cl)cc1S(=O)(=O)N1CCN(c2ccc(F)cc2)CC1 | -4.38
COc1cc(C2C(C#N)=C(N)Oc3cc(N(C)C)ccc32)cc2c1OCO2 (stereo not shown) | 8.6
O=C(NC1CCCCC1)C(c1cccs1)N(C(=O)c1ccccn1)c1ccccc1 (stereo not shown) | 2.42
CSCCC(NC(=O)c1ccoc1C)C(=O)O (stereo not shown) | 7.87
CCCCC(=O)Nc1c2c(nn1-c1ccc([N+](=O)[O-])cc1)CS(=O)(=O)C2 | -5.33
FC(F)(F)c1ccc(Oc2ccc3c(C(F)(F)F)cc(C(F)(F)F)nc3n2)cc1 | 19.7
COc1ccc(CCNC(=O)C2CC=CCC2C(=O)O)cc1 (stereo not shown) | 7.67
CN(Cc1cn(-c2ccccc2)nc1-c1ccc(F)cc1)C(=O)CCC(=O)O | 13.5
CCCCN(C)C(=O)C1CCN(c2ccc(S(=O)(=O)N3CCOCC3)cc2[N+](=O)[O-])CC1 | -11.8
COc1ccccc1Nc1nc(N)nc(CN2CC(C)CC(C)C2)n1 (stereo not shown) | -70.8
COc1ccccc1NC(=O)Nc1ccccc1SC | 2.65
CC(Sc1nccn1C)C(=O)Nc1ccc(Cl)cn1 (stereo not shown) | 4.07
CCOP(=O)(OCC)c1nc(-c2ccc(Cl)cc2Cl)oc1N1CCOCC1 | 1.4
Cc1ccc(S(=O)(=O)N2CCN(C(=O)c3sccc3C)CC2)cc1 | 7.79

SMILES | hERG current change (%, negative = inhibition) at 1uM [%]
CCCNC(=O)C1(CC2CC(c3ccccc3)=NO2)CCN(C(=O)Cc2ccc(F)cc2)CC1 (stereo not shown) | -9.55
COC(=O)C(Cc1ccc(O)cc1)NC(=O)C(C)Oc1ccccc1 (stereo not shown) | 19.1
Cc1ccc2c(c1)c1nnc(SCC(=O)NC3CC3)nc1n2C | 12.1
CCNc1nc(SC)nc(N(C#N)CC(=O)OC)n1 | 11.7
N#Cc1nc(-c2ccco2)oc1NCCc1ccccc1 | 10.2
COc1cc(Nc2nc(-c3ccccc3)c3cc(C)ccc3n2)cc(OC)c1OC | 1.28
O=C(Nc1ccccc1OC(=O)N1CCCCC1)N1CCCCC1 | 11
Cc1cccc(N/C=C/c2onc(C)c2[N+](=O)[O-])c1 | 13.9
CCOC(=O)N1CCC2(CC1)C(C#N)=C(N)Oc1n[nH]c(C)c12 | 6.24
COc1ccccc1-c1cc(C(=O)Nc2cccnc2Cl)no1 | 16.9
O=C(NC(=S)Nc1cccc(S(=O)(=O)NC2=NCCC2)c1)c1cc(-c2ccco2)nc2ccccc12 | 9.95
O=C(O)CCCNc1c(C(=O)Nc2ccc(Cl)cc2)cc([N+](=O)[O-])cc1[N+](=O)[O-] | 16
CCN(CC)c1nc(N)n(CCSC(=S)N(C)C)c(=O)n1 | 9.61
Fc1ccccc1NC(=S)Nc1cccnc1 | 11.8
Cc1cc(C(=O)CSc2nc3ccccc3[nH]2)c(C)n1CC1CCCO1 (stereo not shown) | 2.17
O=C(C1CCC(=O)N(C2CCCC2)C1)N1CCC(Oc2ccccc2Cl)CC1 (stereo not shown) | -25
O=C(NNS(=O)(=O)c1ccc([N+](=O)[O-])cc1)c1ccncc1 | 12.3
O=C(Cc1ccccc1)N1CCN(Cc2cccc(Br)c2)CC1.O=C(O)C(=O)O | 4.34
O=C(c1ccccc1Br)N1CCN(c2ccccn2)CC1 | 11.1
CCn1nnnc1SCC(=O)N(C)C1CCS(=O)(=O)C1 (stereo not shown) | 2.32
Cc1cc(C)cc(NC(=S)N2CCN(c3ncccn3)CC2)c1 | 1.28
COC(=O)c1ccc(/C=C2/SC(=S)N(CCCC(=O)Nc3ccccn3)C2=O)cc1 | 14.4
N#C/C(=C\c1cn(Cc2ccccc2)c2ccccc12)C(=O)NCc1ccco1 | 8.94

SMILES | hERG current change (%, negative = inhibition) at 1uM [%]
CCc1sc(C(=O)N2CCN(c3ncccn3)CC2)cc1Br | 11.2
Fc1ccc2c(c1)C(c1ccncc1)=NNC(c1ccccc1)=N2 | 3.67
Cc1ccc(-n2c(SCC(=O)Nc3ccc4c(c3)OCO4)nnc2-c2cccs2)cc1 | 3.18
O=C(COc1ccccc1)NCCSCc1ccccc1Cl | 10.9
Cc1ccc(Cn2c(CN3CCOCC3)nc3c2c(=O)n(C)c(=O)n3C)cc1 | 3.22
CN1CCN(C(=O)c2cnn3c(C(F)F)cc(C4CC4)nc23)CC1 | 6.87
CCOc1ccc(C(=O)Nc2ccc3c(c2)C(=O)NC3=O)cc1 | 18.4
COc1ccc(-n2c(C)nc3c(cnn3-c3ccccc3)c2=O)cc1 | -5.06
COc1cc(C(=O)OCC(=O)N2CCC(Cc3ccccc3)CC2)cc(OC)c1OC | 13.4
COc1ccc(-c2cc(=NC(CC(C)C)C(=O)O)c3cc(C)ccc3o2)cc1 (stereo not shown) | -3.35
CC(=O)c1ccc(Oc2ncnc3sccc23)cc1 | 12.7
COc1ccc(C[C@H]2CN3C(=NC[C@@H]3Cc3ccc(O)cc3)N2C[C@H](C)NC(=O)c2ccc(C)c(Br)c2)cc1 | -60.1
COc1cccc(CN2C(=O)CCC2(C)C(=O)NCCc2ccc(OC)c(OC)c2)c1 (stereo not shown) | 1.35
C=CCC(NCCCO)c1cccc(OC)c1OC.Cl (stereo not shown) | 9.83
CCc1sc(N)nc1-c1ccccc1 | 11.5
C=CCOc1ccccc1/C=N/NC(=O)Cc1ccccc1 | 14.3
COc1ccc(C(=O)NCC(=O)N/N=C/c2cccnc2)cc1OC | 17.4
C=CCOc1c(Br)cc(/C=N/NC(N)=O)cc1OC | 0.552
O=C(Nc1cccc(C(F)(F)F)c1)C(Sc1ncnc2ccccc12)c1ccccc1 (stereo not shown) | 10.2
CCCn1c(SCC(=O)NC2CCCC2)nc2c1c(=O)n(C)c(=O)n2C | -4.32
CSc1sc(C(=O)NN)c2c1C(O)CCC2 (stereo not shown) | 11.2
CCOc1ccccc1OCCCCCc1c(C)n[nH]c1C | 12.7
